# Measurements as given in article PMC12040169 (PLOS Biology, 2025).
# Some of the results follow.
# Tested on: T1, C. trachomatis L2/434/Bu expressing GFP (CTL2-GFP)
# T1 construct: L2/434/Bu GFP intracellular growth in HeLa cells
# Set-up: species or system HeLa; C. trachomatis total inclusion area by high-content imaging, normalised to DMSO
# Conditions: total inclusion area; 28.5 h, 10 µM; inhibitor
# How it was run: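 High-content images of fixed, Hoechst-stained infected cultures supply inclusion area and count (growth) plus nuclei number (viability), complementing bulk GFP/resorufin fluorescence. MIC determination is unchanged from the primary assay.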
row,Compound,% of control remaining
1,CC(=O)C(CC(=O)O)C1=C(O)CC(C)(C)CC1=O (centres unmarked) [CBK287127],89.8384
2,CC(O)(CC#N)c1ccccc1 (centres unmarked) [CBK028508],87.4805
3,O=C(Cc1ccc(F)cc1)N1CCCC1c1cccc(Cc2ccc(F)cc2)n1 (centres unmarked) [CBK286234],124.207
4,CCOc1ccc(NC(NC(=O)Nc2ccccc2)C(Cl)(Cl)Cl)cc1 (centres unmarked) [CBK261294],100.977
5,Cc1ccc(S(=O)(=O)Nc2ccc(C(=O)Nc3ccc(S(=O)(=O)N4CCCCC4)cc3)cc2)cc1 [CBK269000],83.9349
6,Cc1cnn(C(C)C(=O)N2CCc3c(nc(N(C)C)nc3N(C)C)C2)c1 (centres unmarked) [CBK307556],68.2495
7,CCOc1ccccc1NC(=O)c1cc2cccnc2n(Cc2ccc(Cl)cc2)c1=O [CBK294395],102.492
8,CCn1c(C(O)c2ccccc2)n[nH]c1=S (centres unmarked) [CBK015110],37.5138
9,Cc1[nH]c2ccccc2c1C(=O)CCC(=O)O [CBK260871],99.2638
10,CC(=O)Nc1ccc(S(=O)(=O)Nc2ccc(C(=O)O)cc2)cc1 [CBK050427],96.2638
11,COc1cc2c(cc1OC)C(c1ccccc1)N(Cc1ccc(OCCO)cc1)CC2 (centres unmarked) [CBK286359],83.6848
12,CCN(CC)CCC(=O)c1ccc(Cl)cc1 [CBK015906C],87.1895
13,Cc1[nH]c2c(C)cccc2c1CC(=O)NC1CCCN(C)C1 (centres unmarked) [CBK282485],100.215
14,O=C(NCc1ccc2occc2c1)c1ccc2[nH]ccc2c1 [CBK149055],101.907
15,CC(C)N1CCC(=NNC(=O)c2cc(O)c(O)c(O)c2)CC1 [CBK262626],105.994
16,Cc1c(C(=O)N2CCCC2C(N)=O)nnn1Cc1ccc(F)cc1F (centres unmarked) [CBK305925],42.4111
17,Cc1ccccc1Nc1nc(N)nc(CN2CCCC2C(=O)N(C)C)n1 (centres unmarked) [CBK305638],77.6024
18,Cc1ncsc1C(=O)N1CCC2(C/C=C/C[C@H]3COCC[C@H]3NC(=O)[C@@H](CC(C)C)NC2=O)CC1 [CBK292187],69.7985
19,O=C(NC(Cc1c[nH]c2ccccc12)C(=O)O)c1ccco1 (centres unmarked) [CBK217706],101.125
20,Cc1nc2ccc(C(=O)NC3CCN(Cc4ccccc4)CC3)cn2c1N(C)C(=O)c1cccs1 [CBK146529],96.0335
21,Cc1ccccc1Nc1nc(N)nc(CN2CCOCC2)n1 [CBK305646],62.9906
22,CCOC(=O)Cn1c(-c2cccs2)cc2cccnc21 [CBK282267],79.7409
23,CO[C@H]1CC[C@H](C(=O)N2C3CCC2CC(O)(c2ccco2)C3)CC1 (some centres unmarked) [CBK284107],76.0766
24,Cc1ccc(-c2csc(NC(=O)c3c(C)noc3C)c2C(=O)NC2CC2)cc1 [CBK268141],97.1909
25,CCNC(=O)N(C)c1c(CC)nc2c(OCC3CCCCC3)cccn12 [CBK147795],73.9503
26,O=C(NCCCn1cccc1)N1CCN(Cc2ccc(F)cc2)CC1 [CBK306994],84.0659
27,CC(C)C(=O)N1CCN(C(=O)Cn2c(-c3ccc(Cl)cc3)n[nH]c2=S)CC1 [CBK297910],90.1504

row,Compound,% of control remaining
1,COc1ccccc1-c1ccc(NC(=O)c2ccc3c(c2)ncn3C)cc1 [CBK285652],87.2603
2,Cc1sc2ccc(-c3ccccc3)cc2[n+]1CCCS(=O)(=O)[O-] [CBK260947],89.5054
3,CNc1nc(SCC(=O)Nc2ccc(Cl)c(Cl)c2)nc(N2CCOCC2)n1 [CBK269559],84.7593
4,C=CCN(c1ccccc1)S(=O)(=O)c1ccc(Br)cc1CC [CBK038344],75.9558
5,CC(Oc1cccc(Cl)c1)C(=O)O/N=C(\N)Cc1cccc2ccccc12 (centres unmarked) [CBK266033],126.425
6,Cc1c(Nc2cnn(C34CC5CC(CC(CC(=O)O)(C5)C3)C4)c(=O)c2Cl)c(=O)n(-c2ccccc2)n1C [CBK268707],105.262
7,CN(C)CCN1CCN(c2cccc(-c3ccncc3)n2)CC1 [CBK037029],121.164
8,Cc1nc2c(c(=O)[nH]1)CC[C@@H]1CN(C(=O)c3occ4ccccc34)C[C@H]21 [CBK284408],76.8625
9,CS(=O)(=O)c1ccc(CNC(=O)c2ccccc2-n2cccc2)cc1 [CBK149612],97.2397
10,O=C(c1ccc(F)cc1)C1CCN(CCc2c[nH]c3ccccc23)CC1 [CBK149125],97.1121
11,CS(=O)(=O)Nc1ccc(-c2cccc(C(F)(F)F)c2)c2ccccc12 [CBK083746],93.1857
12,O=C(Nc1ccc(Oc2ncccn2)cc1)c1csc(-c2ccccc2)n1 [CBK298324],80.2066
13,Cc1n[nH]c(C)c1CC(=O)N1CCCC(c2cc3ccccc3cn2)C1 (centres unmarked) [CBK285018],93.3414
14,Cc1nc(C(C)NC(=O)c2cc(C3CC3)nc3c2c(C)nn3C)cs1 (centres unmarked) [CBK304779],63.746
15,COc1ncc(-c2cncc(NCCc3ccccn3)n2)c(OC)n1 [CBK065287],145.653
16,N#Cc1c[nH]c(C(=O)NC2CCN(C(=O)c3ccccc3)CC2)c1 [CBK306433],47.279
17,OCCC1CCCCN1c1cncc(-c2cccc(Cl)c2)n1 (centres unmarked) [CBK037906],69.2907
18,CS(=O)(=O)Nc1nccnc1OC1CCN(CCc2c[nH]c3ccccc23)CC1 [CBK084282],94.5173
19,CCC(CO)Nc1cncc(-c2ccc3c(c2)OCO3)n1 (centres unmarked) [CBK065970],81.4877
20,COCCn1cc(CN2CCC(CO)C2)c2ccccc21 (centres unmarked) [CBK282123],91.6284
21,COc1ccc(C2=C(Nc3ccc(C(=O)NCc4cccnc4)cc3)c3ccccc3C2=O)cc1 [CBK263809],108.479
22,CN1CCCC(NC(=O)Cn2nc(C(F)(F)F)c3c2CCCC3)C1 (centres unmarked) [CBK282548],126.84
23,CCc1c(C)nc2c(C(=O)NC(CC)COC)cnn2c1C (centres unmarked) [CBK162133],99.6342
24,O=C(CCCOc1ccc(Cl)cc1Cl)Nc1c[nH]c(=O)[nH]c1=O [CBK264235],100.78
25,COc1ccc(-c2cc(C3CCN(C4CCSCC4)C3)[nH]n2)cc1 (centres unmarked) [CBK285282],100.146
26,N#Cc1c(SCC(=O)O)nc(-c2cccs2)c2c1CCCC2 [CBK269858],81.0922
27,CC1CC1C(=O)NC1CCN(CC2(c3ccccc3)CC2)CC1 (centres unmarked) [CBK285353],94.7518

row,Compound,% of control remaining
1,CC(C)OC(=O)Cc1nc(CN2CCOC(c3ccc(F)cc3)C2)cs1 (centres unmarked) [CBK305439],125.908
2,COC(=O)c1ccsc1NC(=O)CN1CCNCC1 [CBK057080],113.142
3,O=C(CN1CCC(c2ccccc2F)CC1)NCc1ccco1 [CBK283550],93.0464
4,c1ccc(OCCN2CCC3(C2)NCCc2[nH]ccc23)cc1 (centres unmarked) [CBK084595T],96.696
5,CCNC(=O)N1CC(C)N(CCCCc2ccc(F)cc2)C(C)C1 (centres unmarked) [CBK025027C],85.4184
6,CCOC(=O)C1(Cc2cc(-c3ccccc3F)no2)CCNCC1 [CBK284580],44.5716
7,CCOc1cc2c(cc1NS(=O)(=O)c1cc(C(=O)O)ccc1C)OC(C)C2 (centres unmarked) [CBK296711],80.9327
8,Cc1ccc2cc(CN(Cc3ccco3)S(C)(=O)=O)c(O)nc2c1 [CBK269409],118.713
9,COc1cc2c(cc1NC(=O)c1ccc(C)c([N+](=O)[O-])c1)oc1ccccc12 [CBK263411],72.3107
10,COC(=O)c1c(-c2ccncc2)csc1NC(=O)Cc1ccc([N+](=O)[O-])cc1 [CBK268119],119.341
11,O=[N+]([O-])c1ccc(CN2CCN(C3CCN(Cc4ccccc4)CC3)CC2)cc1 [CBK264310G],99.2925
12,O=C(O)c1ccc(NS(=O)(=O)c2cccc([N+](=O)[O-])c2)cc1O [CBK200022],98.861
13,COc1cccc(CN2CCC3(CC2)NC(=O)Cc2ccc(C)cc23)c1 [CBK040219],90.972
14,Cc1ccccc1Nc1ccccc1C(=O)O [CBK012249],69.5372
15,O=C(O)COC(=O)C1C(c2ccccc2)C(C(=O)O)C1c1ccccc1 (centres unmarked) [CBK263881],116.205
16,C/N=c1\cccccc1NC [CBK022788],64.8237
17,COc1cccc(OCc2cnc(-c3ccc(Cl)cc3)c(-c3cccc(CNC(C)=O)c3)c2)c1 [CBK165225],101.391
18,COc1cccc(C(=O)N2CCC(Cc3ccccc3-c3ccccc3)(C(N)=O)CC2)c1 [CBK285729],104.21
19,O=C(O)c1nccnc1C(=O)NCCc1c[nH]c2ccc(Cl)cc12 [CBK286630],77.6663
20,Cc1ccc(CCNC(=O)c2snnc2C)cc1C [CBK282051],99.8393
21,CCSc1nnc2c(n1)OC(C)Nc1ccccc1-2 (centres unmarked) [CBK025684],37.3026
22,CC(C(=O)N1CCC2(CC1)NC(=O)c1ccccc1N2)(c1ccccc1)c1ccccc1 [CBK286308],35.8469
23,CC(C)NC(=O)NC(=O)C1CCN(CCCc2ccc(Cl)c(Cl)c2)CC1 [CBK034947],88.2238
24,C=C(C)CNC(=O)c1cc(Br)cnc1N(C)S(C)(=O)=O [CBK076498],90.1944
25,O=CNCCCc1nc2ccccc2n1CCc1ccccc1 [CBK269393],89.3022
26,CC(C)c1ccc(C2C(C(=O)c3ccco3)=C(O)C(=O)N2CCCN(C)C)cc1 (centres unmarked) [CBK264549],105.795
